Test results as given in ChEMBL document CHEMBL4888484, “Replenishing the malaria drug discovery pipeline: Screening and hit evaluation of the MMV Hit Generation Library 1 (HGL1) against asexual blood stage Plasmodium falciparum ,using a nano luciferase reporter read-out” (2022).
Screen size: about 150,000 compounds; about 540 (0.36%) showed an effect of 50% or more. This is one part of the list.

tested on: Plasmodium falciparum; assay: Primary screen in NF54 nanoGlo assay, in single point, at 2uM, 72h; a lower Z score goes with more inhibition; assay type: functional, Erythrocyte; conditions: timepoint 72 hour

SMILES | % Inhibition | Z score
Cc1ccc(NC(=O)Cn2c(C)cc(=O)n3nc(-c4ccccc4C)nc23)cc1C | -10% | 1.28
c1ccc2c(N3CCN(C[C@H]4CCOC4)CC3)nncc2c1 | -5% | 0.91
CCOc1nnc(Cn2cnc3c2c(=O)n(C)c(=O)n3C)s1 | -13% | 2.15
O=C(Cc1cccnc1)NCc1cc(N2CCOCC2)ncn1 | 4% | -0.76
Cn1cnnc1CCC(=O)N[C@@H]1[C@H]2CCO[C@H]2[C@H]1Cc1ccccc1 | -5% | 0.84
COCCCN1CC(=O)N[C@@H]2CN(C(=O)c3ccc(F)c(O)c3)CC[C@@H]2OCc2cccc(c2)Oc2ccc(cc2OC)CCC1=O | 2% | -0.41
CC(=O)c1cccc(Oc2nc3ccccc3o2)c1 | -3% | 0.53
CCc1nc([C@H](N)CO)n(-c2ccc3ccccc3c2)n1 | -11% | 1.47
O=C(OCC(=O)N1CCCc2ccccc21)c1nccc2ccccc12 | 35% | -4.68
O=C(C1CCCO1)N1CCCC2CCCC21 (stereo not drawn) | -7% | 1.03
CCCC(CCC)N1CCC[C@H](c2nnc(CN3CCOCC3)n2C)C1 | -13% | 1.51
O=S1(=O)C=C[C@@H](N(c2ccccc2)S(=O)(=O)c2ccc(Cl)cc2)C1 | 5% | -0.61
O=C(NC[C@H]1CCN(CCN2CCOCC2)C1)Nc1cccnc1 | -1% | 0.27
Nc1c2c(-c3ccccc3)nc(NCc3ccc(F)cc3)nc2nn1-c1ccc(Cl)cc1 | -11% | 1.21
O=C1CCC(=O)N1OCCOc1ccccc1 | -13% | 1.59
COc1cccc(CN2CCN3C(=O)N(Cc4ccc(C)cc4)C[C@H]3C2)n1 | 15% | -1.71
CC[C@H](C)N(C)C(=O)Nc1ccc(Cl)cc1 | 1% | -0.12
COc1c[nH]c(C(=O)NCc2cccnc2)cc1=O | 1% | -0.2
C[C@@H](C(=O)NC(N)=O)N1CCC(c2nc3c(s2)CCCC3)CC1 | -11% | 1.45
CC(C)N1CCN(C2CCN(S(=O)(=O)c3ccccc3N)CC2)CC1 | -17% | 1.55
CC(C)(C)c1cn2c(n1)[C@@H](CN)CCC2 | -3% | 0.31
Cc1noc(C)c1S(=O)(=O)N[C@H]1CCc2nc(N(C)C)ncc2C1 | 21% | -2.76
O=C(Nc1cccc(Br)c1)c1coc(NC(=O)c2cnccn2)n1 | 12% | -1.58
CCn1cc(C(=O)N2CCCN(CC3CCC3)CC2)nn1 | -2% | 0.21
O=C(NCCC1(O)CCOCC1)[C@H]1C2CCC(CC2)[C@@H]1C(F)(F)F | -4% | 0.77
O=C(NCCCc1ccccc1)N1Cc2cncnc2C1 | -16% | 2.73
COc1ccccc1OCCN1C[C@@H](C(=O)Nc2ccc3[nH]c(C)nc3c2)CC1=O | -9% | 1.11

SMILES | % Inhibition | Z score
Cc1nc2c(c(N3CCCC3)n1)CCN(C(=O)c1cc3sccc3[nH]1)C2 | -6% | 1.09
CCCOC(=O)[C@@](C)(NC(C)=O)C1CC1 | -11% | 2.14
Cc1cnccc1CNC(=O)[C@@H](C)Cn1cccn1 | -1% | 0.1
Cc1cc(C(=O)N2CCCS2(=O)=O)c(C)n1C(C)C | 6% | -0.66
COCc1nocc1C(=O)NC[C@H]1CCC[C@@H]1O | -9% | 0.9
COc1cc2c(cc1OC)CN(CC(=O)Nc1ccc(C)cc1)[C@H](C(=O)NCCc1ccccc1)C2 | 0% | 0.04
COc1nc2c(c(C)nn2-c2ccccc2)c(C)c1CCC(=O)NCCN1CCOCC1 | 0% | 0.02
CCOC[C@H]1CCCN1Cc1ccn(CC)n1 | 1% | -0.14
COCCNC(=O)CCc1c(-c2ccc(Cl)cc2)nc2ccc(-c3cc4ccccc4s3)cn12 | -32% | 2.8
CC(=O)c1ccccc1C(=O)NCCCc1ncc[nH]1 | -9% | 1.13
COc1ccc(CNC(=O)Cc2csc(-n3nc(C)c(Cl)c3C)n2)cc1 | -1% | 0.18
CCOc1ccc(C(=O)N2CCC[C@@]3(C2)NC(=O)N(Cc2ccccc2)C3=O)cc1 | -9% | 1.68
COC(=O)[C@@H]1C[C@@H](NC(=O)c2cccc(Cl)c2)CN1 | -9% | 1.74
Cn1ncc(NC(=O)C(C)(C)Cc2ccc(O)cc2)c1C(F)F | -5% | 0.57
CN(Cc1ccco1)C1CCN(C(=O)OC(C)(C)C)CC1 | -9% | 0.79
COc1nn(C)cc1NC(=O)N1C[C@H]2COC[C@@]2(c2ccccc2)C1 | 2% | -0.35
Cc1csc(NC(=O)c2ccc(NC(=O)N[C@H]3CCS(=O)(=O)C3)cc2)n1 | 9% | -1.11
CCCC[C@H](CC)c1nnc(NC(=O)CC(C)C)s1 | -2% | 0.33
c1ccc2c(-c3nccn3CC[C@H]3CCOC3)ccnc2c1 | -7% | 1.23
O=C(N[C@H]1CCOc2ccccc21)c1ccco1 | -2% | 0.25
Cc1nn(-c2ncccn2)c2c1[C@@H](c1cccc(C(F)(F)F)c1)CC(=O)N2 | 33% | -3.76
Cc1ccccc1CCCn1cnc(CCCO)c1 | -18% | 3.37
CN1C(=O)c2cccn2C[C@@H]1CNC(=O)c1n[nH]c2c1COc1ccccc1-2 | -12% | 2.29
Cc1cc(-c2nnc(NC(=O)COc3ccccc3F)o2)n(C)n1 | -10% | 1.86
O=C(Cn1cnc2ccccc2c1=O)N(C1CCCC1)[C@H]1CCS(=O)(=O)C1 | -43% | 5.08
CC1CN(C(=O)Cc2noc(C3CCc4ccccc4O3)n2)CC(C)O1 (stereo not drawn) | -3% | 0.45
CCO[C@H]1COC[C@@H]1NC(=O)Nc1cn(CC)nn1 | -8% | 1.66
